Some of the results follow.
Tested on: PfSIP2 AP2 domain 1 (GST-tagged)
Assay: gcPBM binding intensity (ln(normalized median fluorescence intensity)); higher = stronger DNA binding
How it was run: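 Probes on an Agilent 4 × 180k array were primer-extended, double-stranded and 36 bp long, taken from intergenic genomic regions, with negative controls added. GST-tagged P. falciparum DNA-binding domains from E. coli, about 25 μg on average, were applied to the array for 1 h in 1× PBS containing 1% milk, 0.2 mg/ml BSA, 0.5% salmon testes DNA and 0.03% Triton X-100. Binding intensity, obtained after Alexa488 anti-GST antibody detection and a 488 nm scan, is the highest Masliner-normalised natural-log median intensity across replicate spots of either probe orientation.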

| Sequence | gcPBM binding intensity (ln) |
| --- | --- |
| TGAAATTTCAATACATGTACATATAAAAAAAAAAAA [XGTACX_site4424] | 7.12 |
| TGTATATGTGAAGCAAGGGATGCGGCAGACATAACA [CACACA_negctrl_site1339] | 7.07 |
| AAATTAAAAAAAAATAAATAAAAAAAAAAAAAAAAT [CACACA_negctrl_site1611] | 6.73 |
| TTTTTTTTTTCTACAAGTACATATTTTCATTTAACA [XGTACX_site6621] | 6.97 |
| AAAAAAAAAAAAAAATGTACATATATATATTATAAA [XGTACX_site518] | 7.47 |
| TTTTTTTTTTTGTTCACACATATACTTTTATTTTGG [CACACA_site4250] | 7.07 |
| AATGCTATCATTAATGCACACATTTAAACTTAATAT [CACACA_site5878] | 7.09 |
| TATAACGCTTGCAGCTGTACAAAAATAATCAAACTG [XGTACX_site2464] | 6.89 |
| AAAAGATTTATACATACACACATATTATAGTCACAT [CACACA_site7701] | 7.02 |
| TTTGTTTTAAATATTATACACACGTAAAAGTAGAAT [CACACA_site214] | 7.43 |
| GGAAACCTTTTTTTTACACACAATATATTAATACTT [CACACA_site1403] | 7.06 |
| TACACCCTATTTTTATGTACTTATTTGATTTACACA [XGTACX_site8172] | 7.29 |
| ATATAAATACGGTGTGCACACACATAATATATATAT [CACACA_site2271] | 8.98 |
| CAAATTTAAAAAAAATCACACACAGAAAAAAAAAAA [CACACA_site8728] | 6.78 |
| CAAGAAAATGGACACACACACATATATATATATATA [CACACA_site6010] | 9.18 |
| TGTATACGCATATGTACACACATATATATGTATATG [CACACA_site3087] | 7.25 |
| GTGTAATTATCAGCATAAATATGGTACATACATAAA [CACACA_negctrl_site323] | 7.22 |
| TATACGAAATTGTGCACACATATATTTATGTATGTA [CACACA_site1509] | 9.13 |
| AATACATAATAACATGTACACACATTCTTCTATAAA [CACACA_site9344] | 7.08 |
| TTAAAAGAATATAATGCACACATTATTTTATTTTAT [CACACA_site3772] | 7.03 |
| AAAAAAAACGAACACACACACATACAAAATCTATAT [CACACA_site6795] | 7.24 |
| TACCCACGTATATATATACACACTAATATACACCCA [CACACA_site9381] | 7.22 |

| Sequence | gcPBM binding intensity (ln) |
| --- | --- |
| TTAAATGAAAAAATATGTACGTATAATAAGAAATAT [XGTACX_site6619] | 7.28 |
| GTATGAGTCGTAGAGTGTACTCTGGAGAAAACTACA [XGTACX_site4942] | 6.97 |
| TTTTTTCTTAGTTATACATGCAAAATAAATAAATAA [TGCATGCA_site410] | 7.13 |
| TATTTTTTCTTAAACACACACATATATATATAGAAT [CACACA_site2836] | 7.17 |
| ATTTATATATAATTTTGTACGAAAAAAATAAGGTAT [XGTACX_site3578] | 7.42 |
| TATATATTTATTAAATGTACATAACAAAAATGGTAT [XGTACX_site3577] | 7.41 |
| TGCATACATAAATGTATATATTAATATATATCATAT [GTGCAC_negctrl_site252] | 6.96 |
| AAATAAAGTAAAATATGTACATAAATTAAAACACAT [XGTACX_site8539] | 7.94 |
| TATATTAAACATATATGTACATATTTTTTCTGAACA [XGTACX_site5390] | 7.06 |
| TATTGTTTTTTTGATTTTTTTTTTTTTTTTAATGAA [CACACA_negctrl_site824] | 6.67 |
| ACCAAATCATATATAGCACACAAATTCTTTATTATT [CACACA_site8911] | 7.13 |
| AATATTTTCTGTAATACTTCTTTTCAATTTATTTCG [CACACA_negctrl_site1390] | 6.94 |
| AATATCAATGATGTTACATGCAAGAGAATCCACAAA [TGCATGCA_site678] | 7.09 |
| ACGTAAAATTATTATTGTACATGTAAATAATTTGGA [XGTACX_site8154] | 6.9 |
| ATTTACATTCACTTATGTACTTATATAATTTTATTT [XGTACX_site8150] | 7.11 |
| TAACTCCACAAATAATGTACATATATCACTATATTT [XGTACX_site4911] | 7 |
| AATGTATAATTATAATGTACAAATAATATATAATAT [XGTACX_site5407] | 7.17 |
| TATATAATATATATTTTATATTTGTAATAATTTTTT [GTGCAC_negctrl_site497] | 6.89 |
| TACATATGAAAATACACACATACATACATATATATA [CACACA_site1673] | 7.4 |
| CAAAATATAGATGACACACACAAAAAAAGTATATTA [CACACA_site6848] | 6.75 |
| AGATAAAAAAAGTACACACACACATATATATATATA [CACACA_site3072] | 9.26 |
| AAGCTTCCTTAATATACACACATATCTGAGTATATT [CACACA_site5939] | 6.84 |

Source: the supplement of paper PMC11417369
